Laboratory results from PubChem BioAssay AID485341 (National Center for Advancing Translational Sciences (NCATS), 2010).
About 1,700 (0.52%) of roughly 330,000 compounds were called active. Inconclusive means that the source gave no clear call. Such entries were picked first, then a sample of the others. The call rests on the fitted dose curve; in most records, active means well fitted inhibition curve with a large enough effect; inconclusive means small, poorly fitted or top-dose-only effect; inactive means no such curve, though single readings can be large or run the other way. Potencies beside an inconclusive call are fits to weak or partial responses and may not hold up.

Molecular target: Beta-lactamase (Escherichia coli (strain K12)) (UniProt P00811)
Test: qHTS Inhibitors of AmpC Beta-Lactamase (assay without detergent); further: nearly all actives have a fitted effect of over 20% in size;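 on activity change, negative = inhibition: plate controls were no compound for no effect and no enzyme for full effect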
Conditions: AmpC nitrocefin hydrolysis, absorbance 480 nm, 0.0001% Triton; activity change, negative = inhibition: at 57.1 µM (top of the series) unless noted
Summary of the method: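 AmpC (5.3 nM in the dispensed reagent) in 20 mM phosphate pH 7.0 with 0.01% (detergent screen) or 0.0001% Triton X-100 was preincubated with compounds for 15 min at room temperature. Nitrocefin was then added from an 800 uM solution, and hydrolysis was followed at 480 nm.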
Potency means the concentration at half of the fitted maximal effect; tags describe the fitted curve by direction and shape.

UniProt P00811, sequence (P00811 whole entry, looked up): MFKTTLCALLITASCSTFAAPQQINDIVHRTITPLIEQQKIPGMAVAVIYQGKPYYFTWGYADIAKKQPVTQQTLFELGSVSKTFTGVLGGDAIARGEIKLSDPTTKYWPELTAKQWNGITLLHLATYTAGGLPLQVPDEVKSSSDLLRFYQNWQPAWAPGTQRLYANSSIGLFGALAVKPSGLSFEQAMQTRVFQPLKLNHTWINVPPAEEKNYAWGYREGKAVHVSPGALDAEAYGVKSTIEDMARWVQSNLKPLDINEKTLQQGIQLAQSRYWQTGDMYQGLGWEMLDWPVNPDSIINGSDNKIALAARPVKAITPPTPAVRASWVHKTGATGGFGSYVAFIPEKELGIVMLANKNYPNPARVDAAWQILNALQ

| SMILES | Potency | activity change, negative = inhibition |
| --- | --- | --- |
| CCCCNc1c(N2CCN(C(=O)OCC)CC2)c(=O)c1=O | inconclusive: 5.62 µM [inhibitor, full curve, poor fit] |  |
| COc1ccc(/C=C2\SC(=O)N(CC(=O)NNC(=O)c3ccccc3O)C2=O)cc1 | active: 11.2 µM |  |
| COc1ccc(CCNC(=S)Nc2cc(C)cc(C)c2)cc1 | inconclusive: 10 µM [inhibitor, partial curve] |  |
| CCOc1ccc(-c2cnc3n2CCC3)cc1 |  | inactive: -4.41% |
| COc1ccccc1-n1c(-c2ccccc2)n[nH]c1=S |  | inactive: -20.3% |
| CC(C)OCCCNC(=O)NC12CC3CC(CC(C3)C1)C2 | inconclusive: 6.31 µM [inhibitor, single point] |  |
| CCOC(=O)Cc1csc2nc3sc(C)c(C)c3c(=O)n12 | inconclusive: 6.31 µM [inhibitor, partial curve, poor fit] |  |
| COc1cnc(-c2ccccn2)nc1Oc1ccccc1Cl | inconclusive: 0.794 µM [inhibitor, partial curve, poor fit] |  |
| Cc1c(Cl)cccc1NS(=O)(=O)c1cccc2nsnc12 |  | inactive: -38.3% |
| COc1ccc(S(=O)(=O)N(CCCN2CCCC2=O)Cc2cc3c(C)cc(C)cc3[nH]c2=O)cc1 |  | inactive: 171% |
| COc1ccc2c(c1)c(=O)c(C(=O)c1ccc(C)cc1)cn2CC(=O)Nc1ccc(F)cc1 | active: 17.8 µM |  |
| c1cc2c3c(cccc3c1)NC1(CCCCCC1)N2 | inconclusive: 1.26 µM [inhibitor, partial curve, poor fit] |  |
| O=C(COC(=O)c1ccc(NS(=O)(=O)c2cccs2)cc1O)Nc1nc2ccccc2s1 | active: 1.58 µM |  |
| Oc1[nH]c2ccccc2c1N=Nc1cccc(Cl)c1 | inconclusive: 17.8 µM [inhibitor, partial curve] |  |
| S=c1[nH]nc(-c2cc(-c3ccccc3)n[nH]2)n1/N=C/c1cccc(Cl)c1 | inconclusive: 5.01 µM [inhibitor, full curve, poor fit] |  |
| Cc1ccc(Cn2c(=N)c(C(=O)NCc3ccco3)cc3c(=O)n4ccccc4nc32)cc1 |  | inactive: 46.7% |
| COc1cccc2cc(C(=O)NCc3ccco3)c(=O)oc12 |  | inactive: 1.88% |
| c1ccc(-c2noc(-c3ccc4ccccc4c3)n2)cc1 |  | inactive: -6.76% |
| O=C(CSc1nnc(SCc2ccccc2)s1)N/N=C/C=C\c1ccco1 |  | inactive: -46.1% |
| Cc1cccc(NC(=S)N/N=C(\c2ccccc2)C(C)C)c1 | inconclusive: 25.1 µM [inhibitor, single point] |  |
| CCC(C)(C)NC(=O)c1ccc2c(c1)OCCO2 |  | inactive: -15.4% [at 11.4 µM] |
| COC(=O)c1ccccc1NC(=S)N(Cc1ccc2c(c1)OCO2)Cc1cc2ccc(C)cc2[nH]c1=O | inconclusive: 2.24 µM [inhibitor, partial curve, poor fit] |  |
| Cc1ccc(/C=C2/SC(=S)N(c3ccc(S(=O)(=O)Nc4nccs4)cc3)C2=O)cc1 | inconclusive: 39.8 µM [inhibitor, single point] |  |
| O=C(COC(=O)C12CC3CC(CC(Br)(C3)C1)C2)Nc1ccc2[nH]c(=O)[nH]c2c1 | active: 31.6 µM |  |
| O=C1CSC(=S)N1/N=C/c1ccc(C(F)(F)F)cc1 | inconclusive: 1.41 µM [inhibitor, full curve, poor fit] |  |

| SMILES | Potency | activity change, negative = inhibition |
| --- | --- | --- |
| COc1cc(CNCC(O)c2ccccc2)ccc1OCc1ccc(Cl)nc1 (stereo not given) |  | inactive: 24.5% |
| CCn1c(SCC(=O)Nc2nccs2)nnc1-c1cccnc1 |  | inactive: -19.2% |
| CC(SC1=NCCS1)C(=O)Nc1nnc(-c2ccc(F)cc2)s1 (stereo not given) | inconclusive: 4.47 µM [inhibitor, full curve, poor fit] |  |
| COc1ccc2ccccc2c1/C=N/N1C(=O)CSC1=S | active: 15.8 µM |  |
| CC(=O)NCC(=O)NC1CCCc2c1cnn2-c1ccc(C(C)(C)C)cc1 (stereo not given) |  | inactive: 101% |
| CC(=O)c1c(C)c(C)c2n1CCn1c(C)ccc1-2 |  | inactive: 0.478% |
| O=C(NCc1ccc(F)cc1)C1CCCN(S(=O)(=O)c2ccc(Br)s2)C1 (stereo not given) |  | inactive: -8.12% |
| Cc1noc(C)c1/C=N/Nc1ccccn1 |  | inactive: -9.67% |
| CC(OC(=O)c1ccc(-c2ccc([N+](=O)[O-])cc2)o1)C(=O)NC(N)=O (stereo not given) |  | inactive: -17.4% |
| CCOCC(=O)Nc1nc2c(s1)C(=O)CC(C)(C)C2 | inconclusive: 2.51 µM [inhibitor, full curve, poor fit] |  |
| O=C(Nc1cccc(NC(=O)c2ccc3c(c2)OCO3)c1)c1ccccc1 | inconclusive: 17.8 µM [inhibitor, partial curve] |  |
| COc1cccc(N2CC(C(=O)Nc3nnc(SCC(=O)NCc4ccco4)s3)CC2=O)c1 (stereo not given) |  | inactive: -43.1% |
| CC(=O)Nc1cccc(C(=O)N(CCc2ccccc2)Cc2ccccc2)c1 |  | inactive: -5.01% |
| COCCOC(=O)c1[nH]c2c(c1C)C(=O)CC(c1ccc(OC)cc1)C2 (stereo not given) |  | inactive: 19.4% |
| CCOC(=O)C1CCN(C(=O)Nc2ccc3nc(-c4ccco4)c(-c4ccco4)nc3c2)CC1 | inconclusive: 3.55 µM [inhibitor, single point] |  |
| CCOC(=O)c1c(NC(=O)COc2ncnc3ccccc23)sc(C)c1C | inconclusive: 6.31 µM [inhibitor, single point] |  |
| O=C(COc1ccccc1)Nc1nc2cc3c(cc2s1)OCCO3 | inconclusive: 22.4 µM [inhibitor, single point] |  |
| COc1cccc(OCC(=O)NNC(=S)Nc2ccc(Cl)cc2Cl)c1 | inconclusive: 3.98 µM [inhibitor, full curve, poor fit] |  |
| CC(CC(=O)N(C)c1c(N)n(Cc2ccccc2)c(=O)[nH]c1=O)c1ccccc1 (stereo not given) | inconclusive: 39.8 µM [inhibitor, single point] |  |
| Cc1c(O)nc(SCC(=O)Nc2ccc3c4c(cccc24)CC3)n(-c2ccc(F)cc2)c1=O | active: 28.2 µM |  |
| COc1ccccc1CCNC(=O)NC1CCCCC1 |  | inactive: -11.4% |
| COCCOC(=O)C1=C(C)NC(=O)NC1c1cccc(F)c1 (stereo not given) |  | inactive: -6.61% |
| O=C(O)COc1ccccc1/C=N/NC(=O)c1cccc(S(=O)(=O)Nc2cccc(Cl)c2)c1 |  | inactive: -21.9% [at 11.4 µM] |
| O=C(Nc1ccccc1)C1=C[C@H](c2coc3ccccc3c2=O)C[C@H](OCCCCO)O1 |  | inactive: 97.4% |
| Cc1ccc(C(=O)Nc2cc(C(F)(F)F)ccc2N2CCCCC2)cc1[N+](=O)[O-] | inconclusive: 3.98 µM [inhibitor, single point] |  |

| SMILES | Potency | activity change, negative = inhibition |
| --- | --- | --- |
| CCN(C1CCCCC1)S(=O)(=O)c1c(C)n(C)c(=O)n(C)c1=O | inconclusive: 39.8 µM [inhibitor, single point] |  |
| COc1cc2ccccc2cc1C(=O)Nc1sc2c(c1C(N)=O)CCN(C(C)C)C2 |  | inactive: 157% |
| C=CCNc1nc(-c2ccc([N+](=O)[O-])cc2)cs1 |  | inactive: -7.51% |
| CCCc1cc(=O)[nH]c2nnc(SCC(=O)N3CC(C)OC(C)C3)n12 (stereo not given) | inconclusive: 39.8 µM [inhibitor, single point] |  |
| O=C(CSc1nc(=O)n2ccccc2n1)Nc1ccc2c(c1)OCO2 | inconclusive: 39.8 µM [inhibitor, single point] |  |
| Cc1sc(NC(=O)CN2C(=O)NC3(CCCC3)C2=O)nc1-c1ccc(F)cc1 | active: 25.1 µM |  |
| CC(=O)c1c(C)[nH]c(C(=O)OCC(=O)Nc2cc(S(=O)(=O)N3CCCC3)ccc2Cl)c1C | inconclusive: 28.2 µM [inhibitor, partial curve] |  |
| O=C(CSc1cn(Cc2ccccc2)c2ccccc12)N1CCOCC1 | active: 44.7 µM |  |
| Cc1ccc(CNC(=O)C(=O)NCC2CCCN2S(=O)(=O)c2cc(C)ccc2C)cc1 (stereo not given) | inconclusive: 35.5 µM [inhibitor, single point] |  |
| CS(=O)(=O)c1ccc(S(=O)(=O)N2CCC(CO)(CCCc3ccccc3)CC2)cc1 |  | inactive: 71.8% |
| CC(NC(=O)Nc1ccc(Cl)cc1)c1ccc2c(c1)OCO2 (stereo not given) | active: 8.91 µM |  |
| Cc1cc(C(=O)COC(=O)c2cc(Cl)ccc2N)c(C)n1Cc1ccco1 | inconclusive: 2.82 µM [inhibitor, full curve, poor fit] |  |
| C(=C\N1CCCCCC1)/c1nnnn1-c1ccc(-c2ccccc2)cc1 | inconclusive: 35.5 µM [inhibitor, single point] |  |
| Cc1cc(C)cc(NC(=O)C(OC(=O)c2ccc(NC(=O)CC#N)cc2)c2ccccc2)c1 (stereo not given) | active: 11.2 µM |  |
| COc1cc(-c2cc(-c3ccccc3)nc(SCC(=O)O)c2C#N)cc(OC)c1OC | inconclusive: 39.8 µM [inhibitor, single point] |  |
| Cc1ccc2c(c1)CCCN2C(=O)c1ccc2c(c1)OCO2 | inconclusive: 4.47 µM [inhibitor, single point] |  |
| COc1cc(CNCCc2ccc(S(N)(=O)=O)cc2)ccc1OCc1ccc(Cl)cc1 |  | inactive: -2.39% |
| COc1ccc(/C(C)=N/OCC(=O)N=Nc2c(O)[nH]c3ccccc23)cc1 | inconclusive: 5.01 µM [inhibitor, single point] |  |
| COC(=O)c1c[nH]n2c(=O)cc(CCl)nc12 | inconclusive: 7.08 µM [inhibitor, single point] |  |
| Cc1cc(C)c(-c2csc(NC(=O)c3cc([N+](=O)[O-])ccc3N3CCOCC3)n2)c(C)c1 | inconclusive: 4.47 µM [inhibitor, partial curve] |  |
| COc1ccc(/C=C(/C(=O)c2cccs2)N2C=CC=CC2=C(C#N)C#N)cc1 |  | inactive: -24.7% |
| O=C(COc1ccc(Cl)cc1)OCc1csc(Nc2ccccc2)n1 |  | inactive: -25.2% |
| Cc1ccccc1NS(=O)(=O)c1ccc(OCC(=O)NCc2ccco2)cc1 | inconclusive: 4.47 µM [inhibitor, single point] |  |
| COc1ccc(C(=O)c2coc3ccc(O)c(CN4CCCCC4)c23)cc1 | active: 39.8 µM |  |
| O=C1NC(=O)N(Cc2ccco2)C(=O)/C1=C/c1ccc(-c2cccc([N+](=O)[O-])c2)o1 | active: 35.5 µM |  |
